# According to the supplement of paper PMC8728848:
# The other results are listed elsewhere or left out.
# Columns and labels:
# Test in all cases: glycan array binding signal (z-score within array); higher = stronger binding
# Conditions in all cases: glycan notation: IUPAC condensed, linker removed
# [1] = target: Fuc(a1-2)Gal6S(b1-3)GlcNAc6S
# How it was run: (§1)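 Glycan array data came from 3228 arrays in the Consortium for Functional Glycomics database, and only arrays with an available protein sequence were kept. Glycan names were put into IUPAC-condensed notation, and columns mapping to the same glycan were averaged. The binding signal is a within-array Z-score, averaged across arrays of one protein sequence run at different concentrations or buffers and across linkers. A negative Z-score can be read as non-binding.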
# [2] = target: Fuc(a1-2)Gal6S(b1-4)Glc
# How it was run: as §1
# [3] = target: Fuc(a1-2)Gal6S(b1-4)Glc6S
# How it was run: as §1
# [4] = target: Fuc(a1-2)[Gal(a1-3)]Gal
# How it was run: as §1
# [5] = target: Fuc(a1-2)[Gal(a1-3)]Gal(b1-3)GalNAc
# How it was run: as §1
# [6] = target: Fuc(a1-2)[Gal(a1-3)]Gal(b1-3)GalNAc(b1-3)Gal(a1-4)Gal(b1-4)Glc
# How it was run: as §1
# [7] = target: Fuc(a1-2)[Gal(a1-3)]Gal(b1-3)GlcNAc
# How it was run: as §1
# [8] = target: Fuc(a1-2)[Gal(a1-3)]Gal(b1-3)GlcNAc(b1-2)Man(a1-3)[Fuc(a1-2)[Gal(a1-3)]Gal(b1-3)GlcNAc(b1-2)Man(a1-6)]Man(b1-4)GlcNAc(b1-4)GlcNAc
# How it was run: as §1
# [9] = target: Fuc(a1-2)[Gal(a1-3)]Gal(b1-3)GlcNAc(b1-2)Man(a1-3)[Fuc(a1-2)[Gal(a1-3)]Gal(b1-3)GlcNAc(b1-2)Man(a1-6)]Man(b1-4)GlcNAc(b1-4)[Fuc(a1-6)]GlcNAc
# How it was run: as §1
# [10] = target: Fuc(a1-2)[Gal(a1-3)]Gal(b1-3)GlcNAc(b1-3)GalNAc
# How it was run: as §1
# [11] = target: Fuc(a1-2)[Gal(a1-3)]Gal(b1-3)GlcNAc(b1-6)GalNAc
# How it was run: as §1
# [12] = target: Fuc(a1-2)[Gal(a1-3)]Gal(b1-4)Glc
# How it was run: as §1
# [13] = target: Fuc(a1-2)[Gal(a1-3)]Gal(b1-4)GlcNAc
# How it was run: as §1
# [14] = target: Fuc(a1-2)[Gal(a1-3)]Gal(b1-4)GlcNAc(b1-2)Man
# How it was run: as §1
# [15] = target: Fuc(a1-2)[Gal(a1-3)]Gal(b1-4)GlcNAc(b1-2)Man(a1-3)[Fuc(a1-2)[Gal(a1-3)]Gal(b1-4)GlcNAc(b1-2)Man(a1-6)]Man(b1-4)GlcNAc(b1-4)GlcNAc
# How it was run: as §1
# [16] = target: Fuc(a1-2)[Gal(a1-3)]Gal(b1-4)GlcNAc(b1-2)Man(a1-3)[Fuc(a1-2)[Gal(a1-3)]Gal(b1-4)GlcNAc(b1-2)Man(a1-6)]Man(b1-4)GlcNAc(b1-4)[Fuc(a1-6)]GlcNAc
# How it was run: as §1
# [17] = target: Fuc(a1-2)[Gal(a1-3)]Gal(b1-4)GlcNAc(b1-3)GalNAc
# How it was run: as §1
# [18] = target: Fuc(a1-2)[Gal(a1-3)]Gal(b1-4)GlcNAc(b1-3)[Fuc(a1-2)[Gal(a1-3)]Gal(b1-4)GlcNAc(b1-6)]GalNAc
# How it was run: as §1
# [19] = target: Fuc(a1-2)[Gal(a1-3)]Gal(b1-4)GlcNAc(b1-6)GalNAc
# How it was run: as §1
# [20] = target: Fuc(a1-2)[Gal(a1-3)]Gal(b1-4)[Fuc(a1-3)]Glc
# How it was run: as §1
# [21] = target: Fuc(a1-2)[Gal(a1-3)]Gal(b1-4)[Fuc(a1-3)]GlcNAc
# How it was run: as §1
# [22] = target: Fuc(a1-2)[Gal(a1-3)]Gal(b1-4)[Fuc(a1-3)]GlcNAc(b1-3)GalNAc
# How it was run: as §1
# [23] = target: Fuc(a1-2)[Gal(a1-4)]Gal(b1-4)GlcNAc
# How it was run: as §1
# [24] = target: Fuc(a1-2)[GalNAc(a1-3)]Gal
# How it was run: as §1
# [25] = target: Fuc(a1-2)[GalNAc(a1-3)]Gal(b1-3)GalNAc(a1-3)[Fuc(a1-2)]Gal(b1-4)GlcNAc
# How it was run: as §1
# [26] = target: Fuc(a1-2)[GalNAc(a1-3)]Gal(b1-3)GalNAc(b1-3)Gal(a1-4)Gal(b1-4)Glc
# How it was run: as §1
# [27] = target: Fuc(a1-2)[GalNAc(a1-3)]Gal(b1-3)GlcNAc
# How it was run: as §1
# [28] = target: Fuc(a1-2)[GalNAc(a1-3)]Gal(b1-3)GlcNAc(b1-2)Man(a1-3)[Fuc(a1-2)[GalNAc(a1-3)]Gal(b1-3)GlcNAc(b1-2)Man(a1-6)]Man(b1-4)GlcNAc(b1-4)GlcNAc
# How it was run: as §1
# [29] = target: Fuc(a1-2)[GalNAc(a1-3)]Gal(b1-3)GlcNAc(b1-2)Man(a1-3)[Fuc(a1-2)[GalNAc(a1-3)]Gal(b1-3)GlcNAc(b1-2)Man(a1-6)]Man(b1-4)GlcNAc(b1-4)[Fuc(a1-6)]GlcNAc
# How it was run: as §1
# [30] = target: Fuc(a1-2)[GalNAc(a1-3)]Gal(b1-3)GlcNAc(b1-3)GalNAc
# How it was run: as §1
# [31] = target: Fuc(a1-2)[GalNAc(a1-3)]Gal(b1-3)GlcNAc(b1-6)GalNAc
# How it was run: as §1
# [32] = target: Fuc(a1-2)[GalNAc(a1-3)]Gal(b1-4)Glc
# How it was run: as §1
# [33] = target: Fuc(a1-2)[GalNAc(a1-3)]Gal(b1-4)GlcNAc
# How it was run: as §1
# [34] = target: Fuc(a1-2)[GalNAc(a1-3)]Gal(b1-4)GlcNAc(b1-2)Man
# How it was run: as §1
# [35] = target: Fuc(a1-2)[GalNAc(a1-3)]Gal(b1-4)GlcNAc(b1-2)Man(a1-3)[Fuc(a1-2)[GalNAc(a1-3)]Gal(b1-4)GlcNAc(b1-2)Man(a1-6)]Man(b1-4)GlcNAc(b1-4)GlcNAc
# How it was run: as §1
# [36] = target: Fuc(a1-2)[GalNAc(a1-3)]Gal(b1-4)GlcNAc(b1-2)Man(a1-3)[Fuc(a1-2)[GalNAc(a1-3)]Gal(b1-4)GlcNAc(b1-2)Man(a1-6)]Man(b1-4)GlcNAc(b1-4)[Fuc(a1-6)]GlcNAc
# How it was run: as §1
# [37] = target: Fuc(a1-2)[GalNAc(a1-3)]Gal(b1-4)GlcNAc(b1-3)Gal(b1-4)GlcNAc
# How it was run: as §1
# [38] = target: Fuc(a1-2)[GalNAc(a1-3)]Gal(b1-4)GlcNAc(b1-3)Gal(b1-4)GlcNAc(b1-3)Gal(b1-4)GlcNAc
# How it was run: as §1
# [39] = target: Fuc(a1-2)[GalNAc(a1-3)]Gal(b1-4)GlcNAc(b1-3)GalNAc
# How it was run: as §1
# [40] = target: Fuc(a1-2)[GalNAc(a1-3)]Gal(b1-4)GlcNAc(b1-3)[Fuc(a1-2)[GalNAc(a1-3)]Gal(b1-4)GlcNAc(b1-6)]GalNAc
# How it was run: as §1
# [41] = target: Fuc(a1-2)[GalNAc(a1-3)]Gal(b1-4)GlcNAc(b1-6)GalNAc
# How it was run: as §1
# [42] = target: Fuc(a1-2)[GalNAc(a1-3)]Gal(b1-4)[Fuc(a1-3)]GlcNAc
# How it was run: as §1
# [43] = target: Fuc(a1-2)[GalNAc(a1-3)]Gal(b1-4)[Fuc(a1-3)]GlcNAc(b1-3)GalNAc
# How it was run: as §1
# [44] = target: Fuc(a1-2)[GalNAc(a1-4)]Gal(b1-4)GlcNAc
# How it was run: as §1
# [45] = target: Fuc(a1-2)[GalNAc(b1-3)]Gal
# How it was run: as §1
binder,measurement,setting,value
PX9937B-bvu-524-33-524 (Bacteroides vulgatus) (protein) GTAYWKNPDQFTAFNTGLHALLREKSYNFFLLGEPRADIYGDNPIGGEASQGMERLPFNTINKENVGISNYGDMYKIINQINQMIAKTTETTILTEATQNYYLGEAYGMRAYLYFHLLRSWGDVVLYLDYTEGQNLDLSNITKGVSPATEVMEQIKKDIQASENAFGSDYSFKLGRHFWSAAATQMLKGEAYLWSGRQMNGGNSDYTIAKNAFENVKKADVGLVTSSFKDIFSFENKKNKEMIFTIHNGKDEYEMWGGYYRMRLIPAQDKMVKIYCDENGNSFVGTPDAQLNGLTQLQVRREFYFKGFRNNDTRWTTSLKAVYKKDAQGVVSYFGPITYKFQGTMLEGGSTRSFLDDFPIYRYADCLLQLAMAKVLLGEDPTEEINAVRERAYGSKYFNEHKAEIAYPNDNDPEFYTDNKWMKPDNAGALEAILKERLREFMFEGKRWYDIRLLGWDYVHQYSSAEQSRLLWPIDAGTLTNNSALKQTPGYE,glycan array binding signal (z-score),[1],0.931
same,glycan array binding signal (z-score),[2],-0.456
same,glycan array binding signal (z-score),[3],-0.158
same,glycan array binding signal (z-score),[4],0.035
same,glycan array binding signal (z-score),[5],-0.401
same,glycan array binding signal (z-score),[6],0.046
same,glycan array binding signal (z-score),[7],-0.275
same,glycan array binding signal (z-score),[8],0.131
same,glycan array binding signal (z-score),[9],-0.509
same,glycan array binding signal (z-score),[10],-0.322
same,glycan array binding signal (z-score),[11],-0.124
same,glycan array binding signal (z-score),[12],-0.088
same,glycan array binding signal (z-score),[13],-0.15
same,glycan array binding signal (z-score),[14],-0.313
same,glycan array binding signal (z-score),[15],1.09
same,glycan array binding signal (z-score),[16],0.001
same,glycan array binding signal (z-score),[17],-0.187
same,glycan array binding signal (z-score),[18],-0.34
same,glycan array binding signal (z-score),[19],-0.293
same,glycan array binding signal (z-score),[20],-0.358
same,glycan array binding signal (z-score),[21],-0.017
same,glycan array binding signal (z-score),[22],-0.416
same,glycan array binding signal (z-score),[23],-0.238
same,glycan array binding signal (z-score),[24],-0.303
same,glycan array binding signal (z-score),[25],-0.066
same,glycan array binding signal (z-score),[26],-0.146
same,glycan array binding signal (z-score),[27],-0.431
same,glycan array binding signal (z-score),[28],-0.315
same,glycan array binding signal (z-score),[29],-0.469
same,glycan array binding signal (z-score),[30],-0.159
same,glycan array binding signal (z-score),[31],-0.168
same,glycan array binding signal (z-score),[32],-0.288
same,glycan array binding signal (z-score),[33],-0.354
same,glycan array binding signal (z-score),[34],-0.41
same,glycan array binding signal (z-score),[35],-0.183
same,glycan array binding signal (z-score),[36],-0.269
same,glycan array binding signal (z-score),[37],-0.333
same,glycan array binding signal (z-score),[38],1.11
same,glycan array binding signal (z-score),[39],-0.348
same,glycan array binding signal (z-score),[40],-0.373
same,glycan array binding signal (z-score),[41],-0.359
same,glycan array binding signal (z-score),[42],-0.135
same,glycan array binding signal (z-score),[43],-0.28
same,glycan array binding signal (z-score),[44],-0.018
same,glycan array binding signal (z-score),[45],-0.008
